Source: patent publication US7994281 (EUROPEAN MOLECULAR BIOLOGY LABORATORY, dated 2011)

Target: T1, wild-type TRAIL (aa 114-281), human soluble TRAIL (human, UniProt P50591 114-281)
T1 construct: homotrimer; also called Wt TRAIL; wt
Assay: SPR, Biacore 3000, 37 C, receptor on chip, 1:1 Langmuir global fit, preliminary apparent Kd
Experimental: Binding of the purified mutants was assessed in real time using surface plasmon resonance on a Biacore 3000 with a sensor chip as described above. […] Measurements performed at 37° C. to allow increased $koff$ and dissociation was monitored for 20 min. Measured $kon$ and $koff$ rates were used to calculate apparent K_d values for the mutants for the respective receptors. A global fit procedure was used and a 1:1 Langmuir interaction model.

B1: DR5 (TRAIL-R2) Fc, recombinant receptor from R&D Systems (Fc fusion)
chain: not shown
notes: also called soluble TRAIL-R2 Fc; immobilized TRAIL-R2 Fc; not shown: Fc part of the bought Fc fusion
With B1 the Kd was 0.4 nM.
